Measured values as given in paper PMC8382200.
Results are given in words; binding and its absence hold for the method and conditions named. In cells and extracts the contact can be indirect. Some entries that bind do so weakly or less than the wild type.

Sequences of proteins named here, by UniProt entry; tags and fusion partners are left off.
UniProt P35241: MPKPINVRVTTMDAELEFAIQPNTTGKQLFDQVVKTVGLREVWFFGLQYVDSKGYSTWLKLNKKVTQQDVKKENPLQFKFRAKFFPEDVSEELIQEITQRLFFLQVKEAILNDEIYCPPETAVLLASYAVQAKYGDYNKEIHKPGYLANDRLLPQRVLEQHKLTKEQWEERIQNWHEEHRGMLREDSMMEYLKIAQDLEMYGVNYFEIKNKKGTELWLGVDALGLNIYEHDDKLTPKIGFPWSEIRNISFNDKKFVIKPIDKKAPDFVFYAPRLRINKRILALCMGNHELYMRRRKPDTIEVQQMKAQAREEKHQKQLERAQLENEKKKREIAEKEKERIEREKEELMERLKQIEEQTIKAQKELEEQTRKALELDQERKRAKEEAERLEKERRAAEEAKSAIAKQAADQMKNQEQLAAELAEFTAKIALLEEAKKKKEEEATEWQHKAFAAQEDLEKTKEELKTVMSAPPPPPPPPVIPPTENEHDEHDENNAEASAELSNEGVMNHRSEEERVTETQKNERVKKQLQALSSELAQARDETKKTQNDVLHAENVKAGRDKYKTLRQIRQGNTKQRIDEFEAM
UniProt P15311: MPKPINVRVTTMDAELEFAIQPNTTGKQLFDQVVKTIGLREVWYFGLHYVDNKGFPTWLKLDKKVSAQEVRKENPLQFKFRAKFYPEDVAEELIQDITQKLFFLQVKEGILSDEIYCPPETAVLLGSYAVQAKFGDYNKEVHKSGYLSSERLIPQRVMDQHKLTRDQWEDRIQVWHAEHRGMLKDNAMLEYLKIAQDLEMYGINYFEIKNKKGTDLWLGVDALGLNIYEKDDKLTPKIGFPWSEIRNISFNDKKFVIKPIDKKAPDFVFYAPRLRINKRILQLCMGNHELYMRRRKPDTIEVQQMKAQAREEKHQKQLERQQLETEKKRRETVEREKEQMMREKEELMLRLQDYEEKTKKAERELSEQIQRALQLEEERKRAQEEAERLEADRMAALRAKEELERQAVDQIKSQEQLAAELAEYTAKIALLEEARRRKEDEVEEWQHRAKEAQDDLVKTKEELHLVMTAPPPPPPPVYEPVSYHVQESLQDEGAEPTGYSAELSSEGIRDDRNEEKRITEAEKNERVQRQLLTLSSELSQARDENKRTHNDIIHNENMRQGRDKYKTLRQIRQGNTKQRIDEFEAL
UniProt P35240: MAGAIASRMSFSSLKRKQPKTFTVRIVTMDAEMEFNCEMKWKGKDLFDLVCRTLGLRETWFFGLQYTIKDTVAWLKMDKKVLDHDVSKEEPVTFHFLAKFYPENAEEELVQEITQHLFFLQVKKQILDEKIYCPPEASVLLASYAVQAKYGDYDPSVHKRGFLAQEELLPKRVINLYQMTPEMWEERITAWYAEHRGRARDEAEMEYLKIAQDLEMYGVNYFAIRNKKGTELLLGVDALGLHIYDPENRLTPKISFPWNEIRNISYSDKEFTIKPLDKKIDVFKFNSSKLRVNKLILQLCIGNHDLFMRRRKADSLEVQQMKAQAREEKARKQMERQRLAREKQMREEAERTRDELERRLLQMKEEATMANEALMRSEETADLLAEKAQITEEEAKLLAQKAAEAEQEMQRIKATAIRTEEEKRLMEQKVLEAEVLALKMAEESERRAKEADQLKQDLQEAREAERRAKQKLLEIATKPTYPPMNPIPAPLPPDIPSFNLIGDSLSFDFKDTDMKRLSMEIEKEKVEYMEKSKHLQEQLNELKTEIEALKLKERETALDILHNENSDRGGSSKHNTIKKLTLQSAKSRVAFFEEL
UniProt P26038: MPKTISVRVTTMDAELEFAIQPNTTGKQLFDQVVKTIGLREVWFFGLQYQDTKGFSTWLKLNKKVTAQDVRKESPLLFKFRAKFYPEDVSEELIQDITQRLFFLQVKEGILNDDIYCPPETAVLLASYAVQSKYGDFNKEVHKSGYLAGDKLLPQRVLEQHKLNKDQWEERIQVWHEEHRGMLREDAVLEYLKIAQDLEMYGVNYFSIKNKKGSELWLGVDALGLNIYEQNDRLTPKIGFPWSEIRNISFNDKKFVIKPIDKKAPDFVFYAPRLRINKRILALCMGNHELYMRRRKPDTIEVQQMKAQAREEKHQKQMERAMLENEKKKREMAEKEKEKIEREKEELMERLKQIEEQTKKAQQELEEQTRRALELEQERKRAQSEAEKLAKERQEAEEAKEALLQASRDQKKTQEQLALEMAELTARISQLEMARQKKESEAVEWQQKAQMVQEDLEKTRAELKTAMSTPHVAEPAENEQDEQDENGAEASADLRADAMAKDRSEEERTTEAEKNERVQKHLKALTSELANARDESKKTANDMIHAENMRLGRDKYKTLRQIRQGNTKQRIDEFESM
UniProt P11171: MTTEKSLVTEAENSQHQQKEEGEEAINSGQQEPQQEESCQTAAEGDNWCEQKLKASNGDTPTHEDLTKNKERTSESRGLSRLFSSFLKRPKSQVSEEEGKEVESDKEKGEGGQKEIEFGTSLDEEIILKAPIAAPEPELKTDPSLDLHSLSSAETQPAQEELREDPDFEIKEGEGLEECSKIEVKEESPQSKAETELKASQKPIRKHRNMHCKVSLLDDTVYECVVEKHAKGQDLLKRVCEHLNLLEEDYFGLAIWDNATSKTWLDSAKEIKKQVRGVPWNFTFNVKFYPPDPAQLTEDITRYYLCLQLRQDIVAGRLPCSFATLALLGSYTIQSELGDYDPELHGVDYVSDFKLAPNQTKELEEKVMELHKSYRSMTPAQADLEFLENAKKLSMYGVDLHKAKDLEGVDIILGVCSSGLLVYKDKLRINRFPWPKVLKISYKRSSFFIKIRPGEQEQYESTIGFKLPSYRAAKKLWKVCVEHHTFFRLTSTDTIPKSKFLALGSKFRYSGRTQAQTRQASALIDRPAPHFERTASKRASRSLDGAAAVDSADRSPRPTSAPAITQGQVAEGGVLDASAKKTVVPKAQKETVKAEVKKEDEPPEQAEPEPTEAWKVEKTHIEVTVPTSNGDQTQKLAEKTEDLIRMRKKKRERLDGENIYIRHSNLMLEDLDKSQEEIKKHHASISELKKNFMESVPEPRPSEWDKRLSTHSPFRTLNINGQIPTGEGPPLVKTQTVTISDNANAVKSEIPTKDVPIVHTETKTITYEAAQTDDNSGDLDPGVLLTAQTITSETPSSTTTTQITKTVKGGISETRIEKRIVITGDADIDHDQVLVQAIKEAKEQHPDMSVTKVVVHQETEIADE

Legend:
Test in all cases: co-IP; Flag-tagged proteins transfected in HEK293T; lysis in PBS-E LB (1% TX100); Flag (M2) agarose IP; endogenous proteins by Western blot; in some panels after siRNA knock-downs or in dense or sparse cells
Flag-Radixin = Flag-Radixin (UniProt P35241)
Flag-Ezrin = Flag-Ezrin (UniProt P15311)
Flag-Merlin isoform 1 = Flag-Merlin isoform 1 (UniProt P35240)
Flag-Moesin = Flag-Moesin (UniProt P26038)
[1] = biological target: Flag-erythrocyte membrane protein band 4.1 (EPB41) (UniProt P11171)

B1: TAT-SF1 (protein, UniProt O43719 1-755)
chain: MSGTNLDGNDEFDEQLRMQELYGDGKDGDTQTDAGGEPDSLGQQPTDTPYEWDLDKKAWFPKITEDFIATYQANYGFSNDGASSSTANVEDVHARTAEEPPQEKAPEPTDARKKGEKRKAESGWFHVEEDRNTNVYVSGLPPDITVDEFIQLMSKFGIIMRDPQTEEFKVKLYKDNQGNLKGDGLCCYLKRESVELALKLLDEDEIRGYKLHVEVAKFQLKGEYDASKKKKKCKDYKKKLSMQQKQLDWRPERRAGPSRMRHERVVIIKNMFHPMDFEDDPLVLNEIREDLRVECSKFGQIRKLLLFDRHPDGVASVSFRDPEEADYCIQTLDGRWFGGRQITAQAWDGTTDYQVEETSREREERLRGWEAFLNAPEANRGLRRSDSVSASERAGPSRARHFSEHPSTSKMNAQETATGMAFEEPIDEKKFEKTEDGGEFEEGASENNAKESSPEKEAEEGCPEKESEEGCPKRGFEGSCSQKESEEGNPVRGSEEDSPKKESKKKTLKNDCEENGLAKESEDDLNKESEEEVGPTKESEEDDSEKESDEDCSEKQSEDGSEREFEENGLEKDLDEEGSEKELHENVLDKELEENDSENSEFEDDGSEKVLDEEGSEREFDEDSDEKEEEEDTYEKVFDDESDEKEDEEYADEKGLEAADKKAEEGDADEKLFEESDDKEDEDADGKEVEDADEKLFEDDDSNEKLFDEEEDSSEKLFDDSDERGTLGGFGSVEEGPLSTGSSFILSSDDDDDDI
With B1 the binding (Flag-Radixin) was “no binding”, the binding (Flag-Ezrin) was “no binding” and the binding (Flag-Merlin isoform 1) was “binds”. For the same binder, the binding (Flag-Moesin) was “no binding” and the binding [1] was “no binding”.
